Measurements: the supplement of paper PMC11876631
± gives the standard deviation of the averaged measurements. Laboratory Escherichia coli strains with one amino-acid change in an essential protein, pooled on minimal glucose agar with carbenicillin or gentamicin at twice the control MIC (plus kanamycin and chloramphenicol for the plasmids), 48 h. Fold change of barcode share against drug-free plates; higher = less susceptible. Active = above 20 in both replicates (the paper's putatively resistant). '<' = one read or none on drug, '>' = one read or none on a drug-free plate. Shares are relative, so most strains fall below 1 when a few take over. Listed are strains with at least 15 reads on both drug-free plates, and hits; most hits rest on fewer reference reads. Replicate rank correlation about 0.5. Edits are read from barcodes.

B1: yqgF; numbered along this chain (parent)
chain: MSGTLLAFDFGTKSIGVAVGQRITGTARPLPAIKAQDGTPDWNIIERLLKEWQPDEIIVGLPLNMDGTEQPLTARARKFANRIHGRFGVEVKLHDERLSTVEARSGLFEQGGYRALNKGKVDSASAVIILESYFEQGY
B2: murJ; numbered along this chain (parent)
chain: MNLLKSLAAVSSMTMFSRVLGFARDAIVARIFGAGMATDAFFVAFKLPNLLRRIFAEGAFSQAFVPILAEYKSKQGEDATRVFVSYVSGLLTLALAVVTVAGMLAAPWVIMVTAPGFADTADKFALTSQLLKITFPYILLISLASLVGAILNTWNRFSIPAFAPTLLNISMIGFALFAAPYFNPPVLALAWAVTVGGVLQLVYQLPHLKKIGMLVLPRINFHDAGAMRVVKQMGPAILGVSVSQISLIINTIFASFLASGSVSWMYYADRLMEFPSGVLGVALGTILLPSLSKSFASGNHDEYNRLMDWGLRLCFLLALPSAVALGILSGPLTVSLFQYGKFTAFDALMTQRALIAYSVGLIGLIVVKVLAPGFYSRQDIKTPVKIAIVTLILTQLMNLAFIGPLKHAGLSLSIGLAACLNASLLYWQLRKQKIFTPQPGWMAFLLRLVVAVLVMSGVLLGMLHIMPEWSLGTMPWRLLRLMAVVLAGIAAYFAALAVLGFKVKEFARRTV
B3: ubiA; numbered along this chain (parent)
chain: MEWSLTQNKLLAFHRLMRTDKPIGALLLLWPTLWALWVATPGVPQLWILAVFVAGVWLMRAAGCVVNDYADRKFDGHVKRTANRPLPSGAVTEKEARALFVVLVLISFLLVLTLNTMTILLSIAALALAWVYPFMKRYTHLPQVVLGAAFGWSIPMAFAAVSESVPLSCWLMFLANILWAVAYDTQYAMVDRDDDVKIGIKSTAILFGQYDKLIIGILQIGVLALMAIIGELNGLGWGYYWSILVAGALFVYQQKLIANREREACFKAFMNNNYVGLVLFLGLAMSYWHF

Variants of: B1
Assay: barcode share on antibiotic plates over drug-free plates; higher = less susceptible
Details: with Escherichia coli (laboratory strain); antibiotic: carbenicillin; 2× MIC (3.1 µg/mL)
Description: (§1)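 A pool of E. coli strains, each edited to carry one amino-acid change in an essential protein, was grown for 48 h on minimal glucose agar with or without antibiotic; strain barcodes were sequenced; mean of two replicates.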
V17A was tested, and the “fold change of barcode share” value was 0.218 ± 0.0076. With L6Q the “fold change of barcode share” value was 0.294 ± 0.1. L6W was tested, and the “fold change of barcode share” value was 0.318 ± 0.087. With L6A the “fold change of barcode share” value was 0.421 ± 0.075. For L6D, the “fold change of barcode share” value was 0.387 ± 0.17. With L6P the “fold change of barcode share” value was 0.271 ± 0.11. For I83W, the “fold change of barcode share” value was 0.827 ± 0.9. In the case of I45P, the “fold change of barcode share” value is reported as 0.15 ± 0.024. For I45Q, the “fold change of barcode share” value was 0.471 ± 0.28. I45A was tested, and the “fold change of barcode share” value was 0.196 ± 0.0079. For I15Q, the “fold change of barcode share” value was 0.303 ± 0.017. I15A was tested, and the “fold change of barcode share” value was 0.432 ± 0.097. With I15W the “fold change of barcode share” value was 0.332 ± 0.11. With I15D the “fold change of barcode share” value was 0.585 ± 0.031.

Same assay, conditions: with Escherichia coli (laboratory strain); antibiotic: gentamicin; 2× MIC (MIC 0.45 µg/mL)
With V17A the “fold change of barcode share” value was 0.0141 ± 0.012. L6Q was tested, and the “fold change of barcode share” value was 0.00763 ± 0.0053. L6W was tested, and the “fold change of barcode share” value was < 0.00385. L6A was tested, and the “fold change of barcode share” value was 0.00706 ± 0.00015. In the case of L6D, the “fold change of barcode share” value is reported as < 0.00575. For L6P, the “fold change of barcode share” value was < 0.00848. For I83Q, the “fold change of barcode share” value was 0.0306 ± 0.017. With I83W the “fold change of barcode share” value was < 0.0123. I83A was tested, and the “fold change of barcode share” value was < 0.0175. I45Q was tested, and the “fold change of barcode share” value was 0.0309 ± 0.031. In the case of I45A, the “fold change of barcode share” value is reported as < 0.0108. For L130W, the “fold change of barcode share” value was < 0.00889. With I15Q the “fold change of barcode share” value was 0.0135 ± 0.013. With I15A the “fold change of barcode share” value was 0.00453 ± 0.0027. In the case of I15W, the “fold change of barcode share” value is reported as 0.00763 ± 0.0063. For I15D, the “fold change of barcode share” value was 0.257 ± 0.0034.

Variants of: B2
Assay: as above
Details: with Escherichia coli (laboratory strain); antibiotic: carbenicillin; 2× MIC (3.1 µg/mL)
Description: as §1
In the case of L448W, the “fold change of barcode share” value is reported as 0.407 ± 0.007. In the case of L448A, the “fold change of barcode share” value is reported as 1.05 ± 0.69. For L448D, the “fold change of barcode share” value was 0.241 ± 0.072. L448Q was tested, and the “fold change of barcode share” value was 0.222 ± 0.02. L448P was tested, and the “fold change of barcode share” value was 0.501 ± 0.14. L496W was tested, and the “fold change of barcode share” value was 0.484 ± 0.21. With L496A the “fold change of barcode share” value was 0.386 ± 0.059. In the case of L496Q, the “fold change of barcode share” value is reported as 0.393 ± 0.066. With L496D the “fold change of barcode share” value was 0.629 ± 0.27. With M482D the “fold change of barcode share” value was 0.442 ± 0.073. In the case of M482P, the “fold change of barcode share” value is reported as 0.401 ± 0.11. With M482W the “fold change of barcode share” value was 0.289 ± 0.047. In the case of M482A, the “fold change of barcode share” value is reported as 0.754 ± 0.21. For M482Q, the “fold change of barcode share” value was 0.272 ± 0.00069. For V498P, the “fold change of barcode share” value was 0.277 ± 0.062. V498Q was tested, and the “fold change of barcode share” value was 0.365 ± 0.024. In the case of V498A, the “fold change of barcode share” value is reported as 0.283 ± 0.072. V498D was tested, and the “fold change of barcode share” value was 0.371 ± 0.099. With V450Q the “fold change of barcode share” value was 0.259 ± 0.02. V450A was tested, and the “fold change of barcode share” value was 0.267 ± 0.06. With V450D the “fold change of barcode share” value was 0.268 ± 0.13. With V450P the “fold change of barcode share” value was 0.365 ± 0.16. For V450W, the “fold change of barcode share” value was 0.177 ± 0.095. V484P was tested, and the “fold change of barcode share” value was 0.415 ± 0.039. V484Q was tested, and the “fold change of barcode share” value was 0.3847 ± 0.0036. With V484D the “fold change of barcode share” value was 0.261 ± 0.0095. With V484A the “fold change of barcode share” value was 0.248 ± 0.066. M466W was tested, and the “fold change of barcode share” value was 0.245 ± 0.031. For M466D, the “fold change of barcode share” value was 0.38 ± 0.12. In the case of M466A, the “fold change of barcode share” value is reported as 0.476 ± 0.049. M466Q was tested, and the “fold change of barcode share” value was 0.274 ± 0.014. For M466P, the “fold change of barcode share” value was 0.307 ± 0.039.

Same assay, conditions: with Escherichia coli (laboratory strain); antibiotic: gentamicin; 2× MIC (MIC 0.45 µg/mL)
For L448W, the “fold change of barcode share” value was 0.00438 ± 0.0018. For L448A, the “fold change of barcode share” value was 0.339 ± 0.47. With L448D the “fold change of barcode share” value was 0.00731 ± 0.0054. In the case of L448Q, the “fold change of barcode share” value is reported as 0.00934 ± 0.0093. With L448P the “fold change of barcode share” value was 0.00564 ± 0.0057. In the case of L496W, the “fold change of barcode share” value is reported as 0.0558 ± 0.026. With L496A the “fold change of barcode share” value was 0.0256 ± 0.031. L496Q was tested, and the “fold change of barcode share” value was 0.00663 ± 0.0019. In the case of L496D, the “fold change of barcode share” value is reported as 0.00851 ± 0.007. M482D was tested, and the “fold change of barcode share” value was 0.0041 ± 0.00064. For M482P, the “fold change of barcode share” value was 0.00284 ± 0.0028. In the case of M482W, the “fold change of barcode share” value is reported as 0.00182 ± 0.0013. M482A was tested, and the “fold change of barcode share” value was 0.012 ± 0.0065. In the case of M482Q, the “fold change of barcode share” value is reported as 0.00612 ± 0.0072. For V498P, the “fold change of barcode share” value was 0.0025 ± 0.0011. With V498Q the “fold change of barcode share” value was 0.00899 ± 0.0055. With V498A the “fold change of barcode share” value was 0.00741 ± 0.0033. With V498D the “fold change of barcode share” value was 0.00221 ± 0.00065. V450Q was tested, and the “fold change of barcode share” value was 0.00609 ± 0.0053. In the case of V450A, the “fold change of barcode share” value is reported as 0.077 ± 0.1. V450D was tested, and the “fold change of barcode share” value was 0.00522 ± 0.0024. With V450P the “fold change of barcode share” value was 0.00534 ± 0.0049. With V450W the “fold change of barcode share” value was < 0.00501. For V484P, the “fold change of barcode share” value was 0.00353 ± 0.00095. For V484W, the “fold change of barcode share” value was < 0.0167. With V484Q the “fold change of barcode share” value was 0.0102 ± 0.0072. V484D was tested, and the “fold change of barcode share” value was 0.00782 ± 0.0075. In the case of V484A, the “fold change of barcode share” value is reported as 0.00626 ± 0.0047. With M466W the “fold change of barcode share” value was 0.00479 ± 0.0019. M466D was tested, and the “fold change of barcode share” value was 0.00628 ± 0.001. For M466A, the “fold change of barcode share” value was 0.0122 ± 0.014. With M466Q the “fold change of barcode share” value was 0.0131 ± 0.016. With M466P the “fold change of barcode share” value was 0.119 ± 0.16.

Variants of: B3
Assay: as above
Details: with Escherichia coli (laboratory strain); antibiotic: carbenicillin; 2× MIC (3.1 µg/mL)
Description: as §1
F173W was tested, and the “fold change of barcode share” value was 0.0843 ± 0.017. With F173D the “fold change of barcode share” value was 0.431 ± 0.093. With F173Q the “fold change of barcode share” value was 0.791 ± 0.047. For F173A, the “fold change of barcode share” value was 0.41 ± 0.27. In the case of V51A, the “fold change of barcode share” value is reported as 0.469 ± 0.022. With V51P the “fold change of barcode share” value was 0.821 ± 0.31. In the case of V51Q, the “fold change of barcode share” value is reported as 1.3 ± 0.29.

Same assay, conditions: with Escherichia coli (laboratory strain); antibiotic: gentamicin; 2× MIC (MIC 0.45 µg/mL)
In the case of F173W, the “fold change of barcode share” value is reported as 0.162 ± 0.14. F173A was tested, and the “fold change of barcode share” value was 0.0612 ± 0.074. In the case of V51A, the “fold change of barcode share” value is reported as 0.0448 ± 0.039. With V51P the “fold change of barcode share” value was 0.0591 ± 0.057. In the case of V51Q, the “fold change of barcode share” value is reported as 0.0656 ± 0.052.
